Measured values taken from PubChem BioAssay AID686978 (National Center for Advancing Translational Sciences (NCATS), 2013).
Where “and” joins values, the source holds several entries; their conditions need not be identical. Identical values can stand only once. Out of some 420,000 compounds screened, about 64,000 (15%) were called active. Inconclusive results, whose numbers are uncertain, are shown with a selection of clear calls. Calls follow the shape of the dose curve; as a rule, active = well fitted inhibition curve with a large enough effect; inconclusive = small, poorly fitted or top-dose-only effect; inactive = flat fitted curve, though single readings scatter. Potencies beside an inconclusive call are fits to weak or partial responses and may not hold up.

assay: qHTS for Inhibitors of human tyrosyl-DNA phosphodiesterase 1 (TDP1): qHTS in cells in absence of CPT; details: DT40 Tdp1-/- hTDP1 cells, no CPT, ATP luminescence, 48 h; activity change, negative = growth inhibition: at 46.2 µM (top of the series) unless noted; also: nearly all actives have a fitted effect of over 55% in size
Summary of the method: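 Growth of hTDP1-complemented DT40 Tdp1-knockout cells is measured by ATP luminescence after at least 48 hr compound exposure at 37 °C, with DMSO substituting for the 20 nM CPT used in the parallel screen.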
% is scaled to controls: 0 for no effect and ±100 for the full control effect; potency is read from the fitted curve at half-maximal effect; tags tell the direction and shape of the fitted curve.

Structure (SMILES)	Potency	activity change, negative = growth inhibition
Cc1cccc(N(CC(=O)Nc2ccc(-c3nc4ccc(C)cc4s3)cc2)S(C)(=O)=O)c1	inconclusive: 6.51 µM [inhibitor, partial curve]	
CCOC(=O)Cc1ccc(NC(=O)c2ccc(C(C)(C)C)cc2)cc1	active: 14.6 µM	
O=C(Nc1ccc2c(c1)OCCO2)c1c(Cl)cccc1Cl		inconclusive: -32.8% [inhibitor]
CCN1CCN(c2ncnc3scc(-c4ccc(C)cc4)c23)CC1	inconclusive: 13 µM [inhibitor, partial curve]	
COc1ccc(CNC(=O)CN2c3ccccc3S(=O)(=O)c3ccccc32)cc1	inactive	
O=C(N/N=C/c1ccc(N2CCOCC2)cc1)c1cccs1	inconclusive: 4.11 µM [inhibitor, partial curve, poor fit]	
CC(=O)c1cccc(NC(=O)c2nc(-c3ccccc3)n(-c3cccc(C)c3)n2)c1	active: 10.3 µM	
COc1cc2nc(N3CCCN(C)CC3)nc(NC(C)C)c2cc1OC	active: 12.6 µM	
Cc1ccc(S(=O)(=O)c2nc(S(=O)(=O)c3ccc(C)cc3)c(NCc3ccco3)s2)cc1	inactive	
CCS(=O)(=O)N1CCc2cc(C(=O)Nc3ccc(OC)cc3OC)ccc21	active: 16.4 µM	
Cc1nc2sccn2c1CN1CCOc2ccc(CN3CCN(c4ccc(F)cc4)CC3)cc2C1	active: 2.59 µM	
COc1ccc(N(C)C(=O)c2ccc(NC(=O)CCS(=O)(=O)c3cccs3)cc2)cc1	inactive	
Oc1c(C(Nc2ccccn2)c2cccnc2)cc(Cl)c2cccnc12 (configuration not stated)	active: 5.17 µM	
COc1cccc(CNc2ccccc2O)c1OCc1ccccc1F	inconclusive: 29.1 µM [inhibitor, single point]	
CCC(CC)c1ncc[nH]1	inactive	
CCn1nc(NS(=O)(=O)c2ccc(NC(C)=O)cc2)c2cc3ccccc3nc21	inconclusive: 29.1 µM [inhibitor, single point]	
Cc1ccc(C)c(OCc2cc(C(=O)N3CC[C@H](O)C3)no2)c1	inactive	
O=C(OCc1cccc(F)c1)c1cc2ccccc2cc1O	inactive	
FC(F)(F)c1ccccc1-c1nc(NCc2cccnc2)c2ccccc2n1	inactive	
CC(CCc1ccccc1)NC(=O)c1ccc(NC(=O)c2ccc(Cl)cc2Cl)cc1 (configuration not stated)	inconclusive: 9.2 µM [inhibitor, partial curve]	
COc1cc(NC(=S)NCCC(c2ccccc2)c2ccccc2)cc(OC)c1	active: 18.4 µM	
Cc1cccc(C2c3[nH]c4ccccc4c3CCN2C(=O)c2cc(-c3cccn3C)n[nH]2)n1 (configuration not stated)	inconclusive: 20.6 µM [inhibitor, single point]	
CCOc1ccc(NC(=O)CN(C)S(=O)(=O)c2ccc3[nH]c4c(c3c2)CCCC4)cc1	inconclusive: 25.9 µM [inhibitor, single point]	

Structure (SMILES)	Potency	activity change, negative = growth inhibition
CC12CN3CC(C)(CN(C1)C3c1ccc([N+](=O)[O-])o1)C2=O (configuration not stated)	inactive	
COc1ccc(C(=O)N2CCN(c3nc4c(C)c(Cl)ccc4s3)CC2)c(OC)c1	active: 9.2 µM	
CN1CCN(S(=O)(=O)c2cccc(C(=O)Nc3nc(-c4ccccc4)cs3)c2)CC1	inconclusive: 29.1 µM [inhibitor, single point]	
COc1ccc(S(=O)(=O)N(CC(=O)NC2CCCC2)c2ccccc2OC)cc1	inconclusive: 18.4 µM [inhibitor, partial curve, poor fit]	
Cc1cc(-c2ccc(S(=O)(=O)Nc3cccc(Cl)c3C)cc2)on1	active: 6.51 µM	
c1ccc(CCNC2=NCCS2)cc1	inactive	
Cc1c(C(=O)Nc2ccc(-c3nnc4n3CCCCC4)cc2)oc2ccc(Br)cc12	inconclusive: 29.1 µM [inhibitor, single point]	
CC(=O)Nc1cccc(-c2ccnc3c2CC(C(=O)NCc2ccc(F)c(F)c2)O3)c1 (configuration not stated)	active: 3.26 µM	
CC(C)(C)[C@H]1C=C(C(=O)NCc2ccccc2)O[C@@H](OCc2ccc(CO)cc2)C1	inconclusive: 18.4 µM [inhibitor, single point]	
CCOC(=O)[C@]12CCCC=C1N(Cc1ccco1)C(=O)[C@H](CC(=O)NCc1cccc(C(F)(F)F)c1)C2	active: 18.4 µM	
O=C(Cn1c(-c2ccccc2)c[n+]2ccsc12)c1ccccc1	inconclusive: 23.1 µM [inhibitor, single point]	
O=C1O[C@@H]([C@H](O)CO)C(O)=C1O	inconclusive: 29.1 µM [inhibitor, single point]	
COc1ccc2nc(NC(=O)c3cccnc3SC)sc2c1	inconclusive: 29.1 µM [inhibitor, single point]	
O=c1[nH]c2cc3c(cc2cc1CN(CCCO)C(=S)NCc1ccco1)OCO3	inconclusive: 29.1 µM [inhibitor, single point]	
CCCc1ccc(OCCNC(=O)c2ccccc2Br)cc1	inconclusive: 29.1 µM [inhibitor, single point]	
COc1ccccc1-c1nnc(-c2ccc(C)cc2)o1	inconclusive: 23.1 µM [inhibitor, single point]	
Cc1cc(C)n(-c2nc3ccccc3nc2N2CCN(S(=O)(=O)c3ccc(F)c(C)c3)CC2)n1	inconclusive: 29.1 µM [inhibitor, single point]	
CC1(C)Cc2cccc(OC(=O)NCCc3ccc(F)cc3)c2O1	inconclusive: 29.1 µM [inhibitor, single point]	
Cc1ccc(NC(=O)Cn2c(=O)ccc3cc(S(=O)(=O)N4CCCC4)ccc32)cc1N(C)C	inconclusive: 29.1 µM [inhibitor, single point]	
CCOc1ccc(S(=O)(=O)N2CCN(C(=O)c3ccc(-n4cncn4)c([N+](=O)[O-])c3)CC2)cc1	inconclusive: 29.1 µM [inhibitor, single point]	
COc1cc(OC)c(OC)cc1/C=C/c1nc2ccccc2c(=O)n1-c1ccc(Br)c(C)c1	inconclusive: 29.1 µM [inhibitor, single point]	
COc1ccc(N(C)C(=O)c2cc3c(s2)-c2ccccc2OC3)cc1	inconclusive: 29.1 µM [inhibitor, single point]	
CCCCNc1nc2c(c(=O)n(Cc3ccccc3)c(=O)n2C)n1C	inconclusive: 18.4 µM [inhibitor, single point] and inconclusive: 14.6 µM [inhibitor, partial curve]	

Structure (SMILES)	Potency	activity change, negative = growth inhibition
O=C(Nc1ccc(Br)cn1)C1CCN(S(=O)(=O)c2cccs2)CC1	inconclusive: 13 µM [inhibitor, partial curve]	
Cc1ccc(N2CC(C(=O)Nc3cc(C(F)(F)F)ccc3N3CCCC3)CC2=O)cc1 (configuration not stated)	inconclusive: 18.4 µM [inhibitor, single point]	
Cc1ccc(Cl)cc1N1CCN(C(=O)C2CCCN(Cc3nc(-c4cccc(Cl)c4)oc3C)C2)CC1 (configuration not stated)	inconclusive: 6.51 µM [inhibitor, single point]	
Cn1c2c(c3cnc4cc(Cl)ccc4c31)CN(Cc1ccc(Cl)cc1)CC2	active: 7.08 µM	
Cc1ccc(C(=O)Nc2cccc(-c3nc(CNC(=O)c4ccccc4-n4cccn4)c(C)o3)c2)s1	inconclusive: 7.31 µM [inhibitor, partial curve, poor fit]	
CSc1ccc(CN2CCCC(CO)(Cc3ccccc3)C2)cc1 (configuration not stated)	inconclusive: 18.4 µM [inhibitor, single point]	
Cc1cnc(CNc2ncncc2-c2ccccc2C)cn1	inconclusive: 29.1 µM [inhibitor, single point]	
CCC(C(=O)NCCc1ccc(Cl)cc1)n1ccc2cc(S(=O)(=O)N3CCCCC3)ccc21 (configuration not stated)	inconclusive: 20.6 µM [inhibitor, single point]	
COC(=O)Cn1nc(-c2ccccc2)c2cc(Cl)ccc21	inactive	
O=C(Nc1ccc(CN2CCOCC2)cc1)c1ccc(-c2cccc([N+](=O)[O-])c2)o1	active: 16.4 µM	
CC1CCCCN1S(=O)(=O)c1ccc(C(=O)N(CCCN(C)C)c2nc3ccc(Br)cc3s2)cc1 (configuration not stated)	inconclusive: 25.9 µM [inhibitor, single point]	
CCCNC(=O)CS(=O)Cc1nc(-c2ccccc2C)oc1C (configuration not stated)	inconclusive: 25.9 µM [inhibitor, single point]	
C[C@H](NC(=O)c1ccc(C(C)(C)C)cc1)C(=O)N1CCC2(CC1)NCCc1[nH]cnc12	inactive	
O=C(COC(=O)c1c2c(nc3ccccc13)CCCCC2)NCc1ccc2c(c1)OCO2	inconclusive: 25.9 µM [inhibitor, single point]	
COC(=O)[C@@H]1CCCN1C(=O)CCc1nnc(CCc2c[nH]c3ccccc23)o1	inconclusive: 25.9 µM [inhibitor, single point]	
CS(=O)(=O)N(Cc1ccc(Cl)cc1)c1ccc(C(=O)NCCSc2ccccn2)cc1	inconclusive: 16.4 µM [inhibitor, partial curve]	
O=C(NCc1ccc(Cl)cc1)c1ccc2c(c1)N(Cc1ccccc1F)C(=O)c1ccccc1S2=O (configuration not stated)	inconclusive: 25.9 µM [inhibitor, single point]	
C=CCOc1ccc(/C(O)=C2/C(=O)C(=O)N(CCCn3ccnc3)C2c2ccco2)cc1 (configuration not stated)	inactive	
COc1ccccc1NC(=O)N(C)C[C@@H]1OCc2cnnn2CCCC(=O)N([C@@H](C)CO)C[C@H]1C	inactive	
COC(=O)C(C(=O)OC)c1ncc(C(F)(F)F)cc1Cl	inactive	
COc1ccccc1CC(=O)Nc1nc(-c2ccc(F)c(F)c2)cs1	inconclusive: 18.4 µM [inhibitor, single point]	
